# In all, about 50,000 compounds went through this assay and about 800 (1.6%) showed an effect of 50% or more. The list shows a part of the results.
# Target: Bcl-2-like protein 10 (Homo sapiens) (UniProt Q9HD36)
# Assay: TR3 peptide-Bcl-B binding displacers, biochemical primary FP assay, phenotype converters (AID 1240);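 further: 0% = Bcl-B with tracer peptide and DMSO and 100% = tracer peptide lacking Bcl-B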
# Conditions: GST-Bcl-B / FITC-TR3 peptide fluorescence polarization; stronger effect = higher value; compound at 3.75 mg/L
# Sequence of UniProt Q9HD36 (Q9HD36 whole entry, looked up): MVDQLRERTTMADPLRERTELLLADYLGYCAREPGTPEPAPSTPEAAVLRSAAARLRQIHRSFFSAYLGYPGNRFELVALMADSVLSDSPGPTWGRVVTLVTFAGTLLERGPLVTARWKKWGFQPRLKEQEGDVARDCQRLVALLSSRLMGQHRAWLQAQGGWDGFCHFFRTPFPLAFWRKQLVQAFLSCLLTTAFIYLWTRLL
row,SMILES,displacement
1,O=C(Nc1ccccc1)C1CC(=O)N(c2ccccc2)C1 (stereo not given),-5.5%
2,CC1CCCCN1S(=O)(=O)c1ccc(F)cc1 (stereo not given),-11.3%
3,COc1ccc(S(=O)(=O)Nc2cc(C)ccc2OC)cc1Br,12.8%
4,COC(=O)C1=C(C)NC2=C(C(=O)CC(c3ccccc3)C2)C1c1cc(OC)c(OC)cc1[N+](=O)[O-] (stereo not given),21.8%
5,COc1ccc(NC(=O)C(O)(c2ccccc2)c2ccccc2)cc1,11.1%
6,COc1ccc(OC)c(C=NN2CCN(Cc3ccccc3Cl)CC2)c1,-4.7%
7,CSc1ccc(C=Nc2ccc(S(N)(=O)=O)cc2)cc1,4.9%
8,Cc1c(C(=O)Nc2ccc(NC(=O)c3ccc(C(C)(C)C)cc3)cc2)cccc1[N+](=O)[O-],1.2%
9,Cc1ccc(N(CC(=O)N/N=C/c2ccccc2)S(=O)(=O)c2ccccc2)cc1,4.2%
10,CCC12c3ccccc3C(c3ccccc31)C1C(=O)N(c3ccc4c(c3)OCO4)C(=O)C12 (stereo not given),-1.9%
11,COc1ccc(/C(N)=N/OC(=O)c2ccco2)cc1,4.9%
12,Cc1ccc(C(=O)c2ccc(Br)c([N+](=O)[O-])c2)cc1,0%
13,COc1ccc(N2C(=O)CSC23C(=O)Nc2ccccc23)cc1 (stereo not given),13.1%
14,COC(=O)c1ccc(/C=C2\SC(=Nc3cccc(Cl)c3C)NC2=O)cc1,26.5%
15,Cc1cccc(/C=C2/SC(=O)N(CN3CCCCC3)C2=O)c1,7.1%
16,CC1=C(C(=O)Nc2ccc(C)cc2)C(c2ccc(Br)cc2)NC(=S)N1 (stereo not given),8.6%
17,COc1cc(/C=c2\sc3nc4c(C)cc(C)cc4n3c2=O)cc(Br)c1O,-52.6%
18,CCC(CO)NC1=C(Cl)C(=O)c2ccccc2C1=O (stereo not given),42.3%
19,O=C(NN1C(=O)C2C(C1=O)C1C=CC2C12CC2)c1ccc(Cl)cc1Cl (stereo not given),3.2%
20,CC(C)CNC(=O)/C(=C/c1ccc(F)cc1)NC(=O)c1ccccc1,14.6%
21,COc1ccccc1C/C(N)=N/OC(=O)Cc1ccc(Cl)cc1,0.4%
22,C=CCN1C(=O)/C(=C\c2cc(OC)ccc2OC)C(=O)NC1=S,1.4%
23,O=C(c1ccc(F)cc1)N1CCN(c2ccc(Cl)cc2[N+](=O)[O-])CC1,-4.5%
24,CC1(C)CC(NC(=O)c2cccc(I)c2)CC(C)(C)N1,12.3%
25,Cc1ccc(NCC(=O)N/N=C\c2ccc[nH]2)cc1,-4.6%
26,O=[N+]([O-])c1cccc(S(=O)(=O)N2CCCC2)c1,-0.6%
27,CCn1c2ccccc2n2cc(-c3ccc([N+](=O)[O-])cc3)nc12,-8%
28,CCOc1cc(/C=C2\SC(=S)N(c3cccc(C)c3C)C2=O)ccc1O,-8.8%
29,Cc1occc1C(=O)Nc1ccc(I)cc1C(=O)O,22.7%
30,O=C(c1cc(-c2ccc(Br)cc2)nc2ccccc12)N1CCN(c2ccc(F)cc2)CC1,0.3%

# Source: PubChem BioAssay AID1240 (Sanford-Burnham Center for Chemical Genomics, 2008)
